# According to paper PMC6919601, “Identification of Plasmodium dipeptidyl aminopeptidase allosteric inhibitors by high throughput screening” (PLoS ONE, 2019):
# The campaign covered roughly 110,000 compounds. About 230 (0.21%) showed an effect of 50% or more. This is one part of the list.
# Molecular target: DPAP1 (Plasmodium falciparum, UniProt Q8IIJ9)
# Test: primary screen, percent inhibition; read by cleavage of a fluorogenic dipeptide substrate; higher = more effect of the substance
# Design: species or system P. falciparum D10 trophozoite lysates; single well
# 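Note: 30 min substrate incubation versus DMSO and 10 µM JCP410 controls.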
# DPAP1, sequence (Q8IIJ9 whole entry, looked up): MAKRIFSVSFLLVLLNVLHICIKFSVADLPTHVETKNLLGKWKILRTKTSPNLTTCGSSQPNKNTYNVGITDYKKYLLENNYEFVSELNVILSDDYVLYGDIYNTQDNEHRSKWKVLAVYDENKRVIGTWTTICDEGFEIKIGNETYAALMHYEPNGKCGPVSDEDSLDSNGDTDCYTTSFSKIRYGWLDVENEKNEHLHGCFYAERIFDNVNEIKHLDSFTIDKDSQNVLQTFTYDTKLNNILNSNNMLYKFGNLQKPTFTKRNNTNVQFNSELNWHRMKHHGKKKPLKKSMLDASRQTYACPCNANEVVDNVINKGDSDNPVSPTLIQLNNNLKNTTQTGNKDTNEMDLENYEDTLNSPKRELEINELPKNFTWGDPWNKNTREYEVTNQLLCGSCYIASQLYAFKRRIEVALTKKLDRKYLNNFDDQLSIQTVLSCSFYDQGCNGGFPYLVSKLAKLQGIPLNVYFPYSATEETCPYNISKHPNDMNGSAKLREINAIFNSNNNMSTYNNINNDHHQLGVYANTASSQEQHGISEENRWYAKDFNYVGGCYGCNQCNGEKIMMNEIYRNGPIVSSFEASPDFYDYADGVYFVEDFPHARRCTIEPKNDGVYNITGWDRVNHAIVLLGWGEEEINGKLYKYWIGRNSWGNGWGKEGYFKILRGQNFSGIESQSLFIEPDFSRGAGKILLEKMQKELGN
row,Structure (SMILES),% Inhibition @ 10 uM [%]
1,COC(=O)CNC(=O)COc1ccc(Cl)cc1Cl,-3.52
2,O=C(O)c1ccc(NC2=CC(c3ccccc3)N(c3ccc(C(=O)O)cc3)C2=O)cc1 (stereo not shown),6.84
3,COc1ccc(CC(=O)Nc2cc3c(cc2C(C)=O)OCO3)cc1OC,-1.98
4,CC1=C(C(=O)Nc2ccccc2C(F)(F)F)C(c2ccc3c(c2)OCO3)C2=C(O)CC(C)(C)CC2=N1 (stereo not shown),3.62
5,CC1CCN(C(=O)CN(c2ccccc2Cl)S(C)(=O)=O)CC1,3.81
6,O=Cc1c(Cl)[nH]c2ccccc12,1.08
7,CC(C)CC(=O)Nc1ccc2oc(-c3ccc(Cl)cc3)nc2c1,-1.66
8,Cn1ncc2c(N3CCC(C(N)=O)CC3)ncnc21,0.426
9,CCC(Sc1nc2ccsc2c(=O)n1Cc1ccccn1)C(=O)NCc1ccc(C)cc1 (stereo not shown),2.07
10,CCOc1ccc2nc(Nc3nc(C)c(CC)c(O)n3)nc(C)c2c1,-1.17
11,O=C1NC(=O)/C(=C\c2cccs2)S1,4.86
12,c1ccc(-c2onc3ccc4c5ccccc5oc4c23)cc1,-0.693
13,CCN1CCN(c2cnn(C34CC5CC(CC(C5)C3C(=O)O)C4)c(=O)c2Cl)CC1 (stereo not shown),1.15
14,COc1ccccc1NC(=O)C1=C(C)Nc2nc(-c3ccccc3Cl)nn2C1c1cccnc1 (stereo not shown),1.28
15,CSc1nc(-c2ccccc2)ccc1C#N,-6.18
16,COc1ccc(C(=O)OCCN2CCOCC2)cc1,-4.74
17,Cc1ccc(S(=O)(=O)Nc2ccccc2/N=C/C=C(\O)c2ccc3c(c2)OCO3)cc1,-0.864
18,COc1ccc(C(CC(=O)c2ccccc2)Sc2ccccc2N)cc1 (stereo not shown),-0.0267
19,Cc1nc(CSc2nnc(-c3ccco3)n2-c2ccccc2)cs1,2.77
20,CC1=CC2=NC(=O)/C(=C\c3c(C)[nH]c4ccc(C)cc34)C(=N)N2O1,-5.1
21,CC(=O)Nc1ccc(NC(=O)C2CC2(c2ccccc2)c2ccccc2)cc1 (stereo not shown),-2.15
22,CCOC(=O)N1CCC(N2CCCC(CO)C2)CC1 (stereo not shown),-3.82

row,Structure (SMILES),% Inhibition @ 10 uM [%]
1,Cc1cccc(-c2nnc(C3CCN(S(C)(=O)=O)CC3)o2)c1,2.34
2,O=C(CSc1nc2ccccc2[nH]1)Nc1ccc2nc(SCC(=O)N3CCCC3)sc2c1,1.35
3,Cc1cc(C)cc(OCCNS(=O)(=O)c2cccs2)c1,5.97
4,Clc1ccccc1CN1CCN(Cc2cccnc2)CC1,3.12
5,CCCN1CCC(Nc2ccc3[nH]ncc3c2)CC1,1.57
6,Cc1cccc(NC(=O)c2cccc(Br)c2)c1C,3.53
7,COc1ccc(Cl)cc1NC(=O)CN(Cc1ccc(F)cc1)S(=O)(=O)c1ccccc1,2.27
8,CCC(C(=O)N1CCN(C)CC1)n1nc(C)c2sc3ccccc3c2c1=O (stereo not shown),-0.856
9,Cc1nc(NC(=O)C2C3C=CC(C3)C2C(=O)O)sc1C (stereo not shown),47
10,COc1cc(/C=C2\SC(=O)N(CC(=O)Nc3ccc(C)cc3)C2=O)cc(Cl)c1O,-5.4
11,NC(=O)c1cc(S(=O)(=O)N2CCN(C3CCCCC3)CC2)cs1,7.08
12,CC1(C)CC(=O)c2c(nc(S)c(C#N)c2-c2ccc(Cl)cc2)C1,22.4
13,Cc1ccn2cc(-c3ccc4c(c3)OCO4)cc2c1,0.331
14,CC1=C(C#N)C(=O)NC(=O)/C1=C\c1ccc(-c2ccc(C)c(Cl)c2)o1,-4.93
15,CCCC[C@@H](NC(=O)CC#N)C(=O)Nc1ccccc1,1.35
16,COc1cccc(C2=CC(c3ccc(OC(F)F)cc3)n3ncnc3N2)c1 (stereo not shown),6.36
17,CCN1C(=O)[C@H]2Cc3c([nH]c4ccccc34)[C@@H](c3cc(OC)c(OC)c(OC)c3)N2C1=S,-1.99
18,CCOC(=O)c1c(C)n(CCOc2ccc(C)cc2)c2ccc(O)cc12,1.63
19,CCOC(=O)C1=C(CN2CC(C)CC(C)C2)NC(=O)NC1c1cccc(OC)c1OC (stereo not shown),0.44
20,C=CCNC(=O)CN1N=C(c2ccccc2)CCC1=O,-1.21
21,O=C(Cn1ncc2c1-c1ccccc1OC2)Nc1nc2ccccc2s1,3.32
22,OC(COCc1ccc(Cl)cc1)CN1CCN(c2ccccc2F)CC1 (stereo not shown),-0.478

row,Structure (SMILES),% Inhibition @ 10 uM [%]
1,N#CC1=C(N)Oc2c(ccc3ccccc23)C1c1ccsc1 (stereo not shown),-0.833
2,O=C(O)c1ccccc1C(=O)NCc1ccc2[nH]c3c(c2c1)CCCC3,-5.58
3,CCOC(=O)c1oc2ccc(S(=O)(=O)N3CCC(c4c(C)[nH]c5ccccc45)CC3)cc2c1C,3.76
4,Cc1ccccc1C(=O)N1CCCCC1CO (stereo not shown),1.83
5,Cc1cccc2c(O)c(NC(=O)NCC3CC3)cnc12,-1.31
6,COc1cc(S(=O)(=O)NC2CC(C)(C)NC(C)(C)C2)c(OC)cc1Cl,-3.43
7,CCOc1ccc(-c2c(C)nn3c(-c4ccccc4)c(C(=O)NCc4ccco4)cnc23)cc1OCC,-0.12
8,O=C(NCc1cccnc1)C1CCC(CNS(=O)(=O)c2ccccc2)CC1 (stereo not shown),2.35
9,O=[N+]([O-])c1cc2c(cc1CN1CCN(c3ccccc3F)CC1)OCO2,-1.07
10,CN1CCCc2c1nc1ccccc1c2N,-6.09
11,O=C(NC1CCCCC1)C(Cc1ccc([N+](=O)[O-])cc1)N1C(=O)c2ccccc2C1=O (stereo not shown),-0.736
12,Cc1ccc(/C=C(\NC(=O)c2ccccc2)C(=O)NCc2ccc(Cl)cc2)o1,5.58
13,Cn1c(=O)c2cc(C#N)c(N)nc2n(C)c1=O,-1.37
14,COc1ccc(CCC2=NCCn3cccc32)cc1,-5.9
15,Cc1ccc(Cn2c(C)c3cnn(CC(=O)N4CCCCCC4)c(=O)c3c2C)cc1,-7.72
16,COc1ccc(C(=O)Nc2cc(Cl)ccc2Cl)c(OC)c1,8.63
17,O=C1OC(c2cccc3ccccc23)=N/C1=C/c1cccs1,-5.11
18,Oc1nc(-c2ccccc2)nc2sc3c(c12)CCCCC3,-3.39
19,CN(C)CCN1C(C(=O)c2ccccc2)=C(OC(=O)c2ccccc2)c2ccccc2S1(=O)=O,2.41
20,CCN(CC)C(=O)CCNC(=O)Cn1ccc2ccccc2c1=O,8.44
